Data from PubChem BioAssay AID504374 (National Center for Advancing Translational Sciences (NCATS), 2011).
In all, about 1,500 compounds went through this assay and about 100 (6.7%) were called active. About 7% were inconclusive and are not listed. Calls come from the whole dose curve; as a rule, active = well fitted inhibition curve with a large enough effect; inconclusive = small, poorly fitted or top-dose-only effect, or effect the other way; inactive = flat fitted curve, though single readings scatter. Some of the results follow.

Molecular target: Runt-related transcription factor 1 (Homo sapiens) + Core-binding factor subunit beta (Homo sapiens) (UniProt Q01196+Q13951)
UniProt Q01196, sequence (Q01196 whole entry, looked up): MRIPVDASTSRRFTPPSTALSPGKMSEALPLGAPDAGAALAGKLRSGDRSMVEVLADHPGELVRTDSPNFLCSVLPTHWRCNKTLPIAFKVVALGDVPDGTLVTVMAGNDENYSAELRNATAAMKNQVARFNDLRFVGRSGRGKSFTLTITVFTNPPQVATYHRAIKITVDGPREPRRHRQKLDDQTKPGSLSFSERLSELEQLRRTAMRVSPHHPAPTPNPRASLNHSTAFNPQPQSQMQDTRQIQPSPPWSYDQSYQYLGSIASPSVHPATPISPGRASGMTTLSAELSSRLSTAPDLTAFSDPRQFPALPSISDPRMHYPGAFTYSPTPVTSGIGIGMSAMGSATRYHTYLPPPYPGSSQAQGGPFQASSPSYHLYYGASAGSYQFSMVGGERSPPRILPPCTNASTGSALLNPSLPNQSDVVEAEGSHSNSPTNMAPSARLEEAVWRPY
UniProt Q01196, sequence (Q13951 whole entry, looked up): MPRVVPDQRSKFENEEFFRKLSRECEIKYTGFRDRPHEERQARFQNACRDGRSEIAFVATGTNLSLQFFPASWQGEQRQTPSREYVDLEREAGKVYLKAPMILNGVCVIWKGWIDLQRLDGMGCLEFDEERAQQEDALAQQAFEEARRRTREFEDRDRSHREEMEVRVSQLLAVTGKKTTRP
Test: qHTS Assay for Compounds Blocking the Interaction Between CBF-beta and RUNX1 for the Treatment of Acute Myeloid Leukemia: Hit Validation; note: nearly all actives have a fitted effect of over 60% in size
Conditions: AlphaScreen CBFb-His/RUNX1-biotin binding; series mostly up to 59.8 µM; activity, negative = inhibition: at the top concentration
Outline: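 Compounds were added to a premixed CBF-beta-His/RUNX1-biotin complex (30 nM each, 20 min) for 15 min. Nickel and streptavidin AlphaScreen beads followed for 90 min at room temperature, with emission at 440 nm […].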
% is set by controls: 0 for no effect and ±100 for the full control effect; potency is the fitted concentration of half-maximal effect.

| Compound | activity, negative = inhibition | Potency |
| --- | --- | --- |
| CCOc1ccc(N2CSC(=S)N(c3ccc(OCC)cc3)C2)cc1 | inactive: -7.44% |  |
| O=C1/C(=C/c2ccsc2)N2CCC1CC2 | inactive: 6.1% |  |
| Cc1ccc(NC(=O)N2CCCn3c(SCC(=O)c4ccccc4)nnc32)cc1 | inactive: -7.56% |  |
| CN(C)c1cccc(N(C)C)c1CNC(=O)C(C)(C)C | inactive: -1.46% |  |
| COC(=O)c1cnc(NNS(=O)(=O)c2ccc(Cl)cc2)nc1C(F)(F)F | inactive: -1.83% |  |
| CCOc1nsc(OCC)n1 | inactive: -0.467% |  |
| CCOC(=O)c1cc(-c2ccccc2)nc2ccc(C)cc12 | inactive: 8.01% |  |
| Cc1cc(=O)[nH]c(N/N=C/c2ccc3c(c2)OCCO3)n1 | inactive: -12.7% |  |
| COc1ccc(/C=N/NC(=O)CCn2cnc3ccccc32)cc1 | inactive: -19% |  |
| O=C(N/N=C/c1ccc(Br)s1)c1ccco1 | inactive: 6.4% |  |
| CN1C(CC(=O)Nc2ccc(Cl)cc2Cl)c2ccccc2CC1(C)C (configuration not stated) | inactive: -4.16% |  |
| Cc1cc(C(F)(F)F)cc(NNC(=O)NC(=O)c2ccccc2Cl)n1 | inactive: 3.45% |  |
| N/C(=N\OC(=O)c1cnn(-c2ccccc2)c1C(F)(F)F)c1cc(C(F)(F)F)cc(C(F)(F)F)c1 | inactive: 1.52% |  |
| O=C(N/N=C/c1ccccc1[N+](=O)[O-])c1cnccn1 | inactive: -5.63% |  |
| Cc1nc(SCCO)c([N+](=O)[O-])[nH]1 | inactive: -1.27% |  |
| CC(=O)c1c(C)nc(Nc2nc3ccccc3s2)nc1C | inactive: 10.6% |  |
| Cc1oc(S(=O)(=O)N2CCOCC2)cc1C(=O)Nc1ccc(Cl)cc1 | inactive: 0.424% |  |
| COc1cc(/C=C2\SC(=S)N(NC(=O)c3ccncc3)C2=O)ccc1O | inactive: 1.27% |  |
| CCCOc1ccc(CSC(=N)N)cc1C(=O)OC | inactive: -9.01% |  |

| Compound | activity, negative = inhibition | Potency |
| --- | --- | --- |
| COc1ccccc1N1CC(C)(C)C(=O)N(C(=O)c2c(F)cccc2Cl)C1=S | inactive: -4.1% |  |
| CC(C)CCCC(C)CCOC(=O)CN1CCCC1 (configuration not stated) | inactive: 1.51% |  |
| O=C(O)c1cccc(COc2ccc3c(c2)CCC3)c1 | inactive: -5.45% |  |
| COc1cc(C(=O)NC(=S)Nc2ccc3c(c2)OCO3)cc(OC)c1OC | inactive: -1.22% |  |
| NC(=O)NN=C1C2CCCC1C(c1ccccc1)NC2c1ccccc1 (configuration not stated) | inactive: -7% |  |
| Nc1nn(-c2ccccc2)c(N)c1N=Nc1cccc(F)c1 | inactive: -18.7% |  |
| Cc1nn(C)c(C)c1NC(=O)c1ccccc1NC(=O)Nc1ccccc1 | inactive: 0.256% |  |
| COc1ccc2c(c1)[nH]c1c(N3CCSCC3)ncnc12 | inactive: -8.99% |  |
| NC(=O)c1ccccc1OCC(=O)Nc1ccc(Cl)c(Cl)c1 | inactive: 5.37% |  |
| Clc1ccc(C2=Nn3c(Cn4nnc5ccccc54)nnc3SC2)cc1 | inactive: -3.94% |  |
| COc1cccc(C(=O)NNC2=C(C(=O)C(F)(F)F)CCC2)c1 | inactive: -9% |  |
| Cc1c(-c2ccc(Br)cc2)[n+](=O)c2c(n1[O-])CCCCC2 | inactive: -3.63% |  |
| Cn1c(=O)c([N+](=O)[O-])c(NCc2ccc3c(c2)OCO3)c2ccccc21 | inactive: 2.42% |  |
| O=C(O)C[C@@H]1C(=O)O[C@@H]2C(COC(=O)c3cc(O)c(O)c(O)c3)O[C@@H](OC(=O)c3cc(O)c(O)c(O)c3)[C@@H](OC(=O)c3cc(O)c(O)c4c3[C@H]1[C@H](O)C(=O)O4)[C@H]2OC(=O)c1cc(O)c(O)c(O)c1 (some centres not stated) |  | active: 31.6 nM |
| CCOC(=O)N1CCc2c(sc(NC(=O)CN3CCOCC3)c2C#N)C1 | inactive: 22.5% |  |
| Cc1ccc(S(=O)(=O)N2CCCCC2)cc1NC(=O)Cn1cnnn1 | inactive: 4.59% |  |
| CCc1cccc(NC(=O)CCCCCC2NC(=O)NC2C)c1 (configuration not stated) |  | active: 447 nM |
| CCN(CC)C(=S)SCC(=O)Nc1ncc2c(n1)CCCC2=O | inactive: 5.8% |  |
| CCN(CC)S(=O)(=O)c1cccc(NC2=NCCCCC2)c1 | inactive: 11.5% |  |

| Compound | activity, negative = inhibition | Potency |
| --- | --- | --- |
| CN1CCN(C(=O)Nc2cccc(-c3ccccc3)c2)CC1 | inactive: 1.01% |  |
| CCOC(=O)/C(C#N)=C/Nc1ccccc1OC(F)(F)F | inactive: -2.36% |  |
| Cc1ccc(NC(=S)N(C)C)cc1C | inactive: -1.37% |  |
| Cc1ccc(C(=O)CSc2nnc(-c3snnc3C)n2C2CC2)cc1 | inactive: 5.91% |  |
| CCNC(=O)COC(=O)c1cc(S(=O)(=O)N2CCCCC2)ccc1C | inactive: -10.6% |  |
| NCCc1ccc(O)c(O)c1 | inactive: -10.7% |  |
| COC(=O)c1sccc1S(=O)(=O)Nc1ccc(C)cc1 | inactive: 6.17% |  |
| Cc1cc(NS(=O)(=O)c2ccc(NC(=O)CSc3nc4ncc(Cl)cc4[nH]3)cc2)nc(C)n1 | inactive: 2.6% |  |
| COc1ccc(OC)c(/C=N/NC(=O)c2cc3c(OC)cc(OC)cc3[nH]2)c1 | inactive: 6.82% |  |
| Cc1ccncc1C(N)=O | inactive: -0.629% |  |
| CC(=O)COc1nc2c(c(-c3ccco3)c1C#N)CCc1ccccc1-2 | inactive: -7.83% |  |
| COc1ccc([N+](=O)[O-])c(S(=O)(=O)c2ccc(Cl)cc2)n1 | inactive: -11.8% |  |
| COC(=O)c1ccccc1N=Nc1c(C)noc1C | inactive: -12.2% |  |
| CC1CC(=O)Nc2ccccc2N1S(=O)(=O)c1ccc(Cl)cc1 (configuration not stated) | inactive: -2.41% |  |
| CC(C)(C)c1ccc(Oc2ccc(NC(=O)c3cccs3)cn2)cc1 | inactive: 4.18% |  |
| C=C1CC[C@H](O)C/C1=C/C=C1\CCC[C@]2(C)[C@H]1CC[C@H]2[C@@H](C)CCCC(C)C | inactive: -21.8% |  |
| CC(C)Nc1cc(C(C)(C)C)nc2c(-c3ccccc3)cnn12 | inactive: -8.45% |  |
| CCOc1cc(C(=O)NCCc2ccc(S(N)(=O)=O)cc2)cc(OCC)c1OCC | inactive: -0.801% |  |
| CN(C(=O)Nc1ccc(Cl)cc1)n1cnc2ccccc2c1=O | inactive: -1.87% |  |
